Like-named read-outs stand apart in the source and are kept apart here.
Tests used:
[1] = target: GSK-3β (Oryctolagus cuniculus, UniProt G1T8E2); assay: GSK-3β kinase assay (phosphorylation of CREB phosphopeptide); format: biochemical, rabbit
Protocol: GSK-3 was obtained from New England Biolabs (UK) Ltd., Hitchin, Herts. The recombinant enzyme was isolated from a strain of E. coli that carries a clone expressing GSK-3β derived from a rabbit skeletal muscle cDNA library [Wang, Q. M.; Fiol, C. […] The samples were transferred to 96-well p81 filter plates (Whatman Polyfiltronics, Kent, UK), and the plates were washed 4 times with 200 μL/well of 75 mM aq orthophosphoric acid.

[2] = system: cellular glycogen synthase activity in HEK293 cells; assay: Glycogen synthase (GS) assay in HEK293 cells; format: cell-based, human; conditions: result in words
Protocol: Cells on 10 cm dishes (Human Embryonic Kidney (HEK) 293 cells, L6 rat myocytes, or 3T3 mouse adipocytes) were treated with different concentrations of GSK3-inhibitors or DMSO vehicle for 90 min. Incubation medium was removed and cells were washed with ice-cold phosphate-buffered saline (PBS) prior to lysis on ice in 50 mM HEPES, pH 7.5, 10 mM EDTA, 100 mM NaF, 5 mM DTT, protease inhibitor cocktail (Sigma). After a freeze/thaw cycle the samples are sonicated for 10 sec and centrifuged at 15,000 g for 10 min at 4° C. Lysate supernatants were snap-frozen on liquid nitrogen and stored at −80° C. Lysates were assayed for glycogen synthase activity in buffer (50 mM Tris-HCl, pH 7.8, 20 mM EDTA, 25 mM NaF, 5 mM DTT, 1% glycogen, 0.3 mM UDP-glucose and 0.06 μCi of [^14C]-UDP-glucose in the presence of 0.1 or 10 mM glucose-6-phosphate. The reaction was carried out for 30 min at 30° C. 70 μL of the reaction mixture (total volume 90 μL) were transferred to a GFC 96-well filter plate (bottom sealed with foil), containing 140 μL 96% ethanol. The GFC plate was incubated for 1 h on ice and than washed with 66% ethanol. To each well 100 μL scintillant liquid was added and the radioactivity of the samples was measured using a scintillation counter (Topcount, HP). Data are expressed as -fold increase in glycogen synthase activity ratios over those of control samples.

[3] = target: T1, CDK2/cyclin E (Homo sapiens, UniProt P24941); assay: CDK/cyclin kinase assay, CDK2/cyclin E; format: biochemical
T1 construct: His6; made in house; host or cells: Sf9 insect cells (baculovirus)

[4] = read-out: IC50 value as measured by a GSK3β kinase assay
[5] = read-out: Kinase inhibition IC50 GSK3β

GSK-3β, sequence (G1T8E2 1-432): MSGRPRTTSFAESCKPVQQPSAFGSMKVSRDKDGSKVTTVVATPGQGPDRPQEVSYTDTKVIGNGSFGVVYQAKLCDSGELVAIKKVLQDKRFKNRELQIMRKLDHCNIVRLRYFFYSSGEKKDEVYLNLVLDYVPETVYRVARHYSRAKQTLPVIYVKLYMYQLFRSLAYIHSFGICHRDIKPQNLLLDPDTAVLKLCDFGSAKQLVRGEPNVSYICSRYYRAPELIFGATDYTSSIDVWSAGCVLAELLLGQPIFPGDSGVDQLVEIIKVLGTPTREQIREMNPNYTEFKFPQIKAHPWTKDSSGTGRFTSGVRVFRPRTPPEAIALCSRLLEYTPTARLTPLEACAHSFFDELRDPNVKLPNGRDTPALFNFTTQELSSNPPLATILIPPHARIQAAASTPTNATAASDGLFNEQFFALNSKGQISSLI

SMILES	IC50 [1, 4] [nM]	IC50 [1, 5] [nM]	capable of inducing cellular glycogen synthase (GS) activity [2]	IC50 [3] [nM]
Cc1c(-c2ccnc(Nc3ccc(F)cc3)n2)sc(=O)n1C [Compound 33, 5-[2-(4-Fluoro-phenylamino)-pyrimidin-4-yl]-3,4-dimethyl-3H-thiazol-2-one]	< 100	–	–	–
Cc1ccc(Nc2nccc(-c3c(C)[nH]c(C#N)c3C)n2)cc1[N+](=O)[O-] [Compound 7, 3,5-Dimethyl-4-[2-(4-methyl-3-nitro-phenylamino)-pyrimidin-4-yl]-1H-pyrrole-2-carbonitrile]	< 100	40	inducing cellular glycogen synthase (GS) activity	–
Cc1cc(Nc2nccc(-c3c(C)[nH]c(C#N)c3C)n2)ccc1F [Compound 11, 4-[2-(4-Fluoro-3-methyl-phenylamino)-pyrimidin-4-yl]-3,5-dimethyl-1H-pyrrole-2-carbonitrile]	< 1000	290	–	–
Cc1[nH]c(C(N)=O)c(C)c1-c1ccnc(Nc2ccc(F)cc2)n1 [Compound 13, 4-[2-(4-Fluoro-phenylamino)-pyrimidin-4-yl]-3,5-dimethyl-1H-pyrrole-2-carboxylic acid amide]	< 100	–	–	–
Cc1[nH]cc(-c2ccccc2)c1-c1ccnc(Nc2ccc(F)cc2)n1 [Compound 27, (4-Fluoro-phenyl)-[4-(2-methyl-4-phenyl-1H-pyrrole-3-yl)-pyrimidin-2-yl]-amine]	–	–	inducing cellular glycogen synthase (GS) activity	–
Cc1[nH]c(C#N)c(C)c1-c1ccnc(Nc2cccc(O)c2)n1 [Compound 6, 4-[2-(3-Hydroxy-phenylamino)-pyrimidin-4-yl]-3,5-dimethyl-1H-pyrrole-2-carbonitrile]	< 1000	160	inducing cellular glycogen synthase (GS) activity	40
Cc1c(-c2ccnc(Nc3ccc(Cl)cc3)n2)sc(=O)n1C [Compound 23, 5-[2-(4-Chloro-phenylamino)-pyrimidin-4-yl]-3,4-dimethyl-3H-thiazol-2-one]	< 100	–	–	–
Cc1c(-c2ccnc(Nc3cccc([N+](=O)[O-])c3)n2)sc(=O)n1C [Compound 32, 3,4-Dimethyl-5-[2-(3-nitro-phenylamino)-pyrimidin-4-yl]-3H-thiazol-2-one]	< 1	–	inducing cellular glycogen synthase (GS) activity	–

More lines, main results first:

IC50 [1, 4] [nM]	SMILES	IC50 [1, 5] [nM]	capable of inducing cellular glycogen synthase (GS) activity [2]	IC50 [3] [nM]
< 1000	Cc1ccc(Nc2nccc(-c3c(C)[nH]c(C#N)c3C)n2)cc1O [Compound 10, 4-[2-(3-Hydroxy-4-methyl-phenylamino)-pyrimidin-4-yl]-3,5-dimethyl-1H-pyrrole-2-carbonitrile]	280	–	–
< 100	Cc1c(-c2ccnc(Nc3ccc(O)cc3)n2)sc(=O)n1C [Compound 34, 5-[2-(4-Hydroxy-phenylamino)-pyrimidin-4-yl]-3,4-dimethyl-3H-thiazol-2-one]	–	inducing cellular glycogen synthase (GS) activity	–
< 100	Cc1cc(Nc2nccc(-c3sc(=O)n(C)c3C)n2)ccc1F [Compound 37, 5-[2-(4-Fluoro-3-methyl-phenylamino)-pyrimidin-4-yl]-3,4-dimethyl-3H-thiazol-2-one]	–	–	–
< 100	Cc1c(-c2ccnc(Nc3cccc(O)c3)n2)sc(=O)n1C [Compound 25, 5-[2-(3-Hydroxy-phenylamino)-pyrimidin-4-yl]-3,4-dimethyl-3H-thiazol-2-one]	–	–	–
